Assay results published in PubChem BioAssay AID493208 (National Center for Advancing Translational Sciences (NCATS), 2011).
In all, about 44,000 compounds went through this assay and about 340 (0.77%) were called active. Not shown: some 5% with an inconclusive outcome. The call rests on the fitted dose curve; in most records, active means well fitted inhibition curve with a large enough effect; inconclusive means small, poorly fitted or top-dose-only effect; inactive means flat fitted curve, though single readings scatter. The list shows a part of the results.

experiment: Acumen qHTS Assay for Inhibitors of the mTORC1 Signaling Pathway in MEF (Tsc2-/-, p53-/-) Cells: Sytravon; conditions: phospho-rpS6 immunofluorescence/PI, 24 h; series mostly up to 38.3 µM; activity change, negative = inhibition: at the top concentration;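 further: plate controls were DMSO for no effect and rapamycin for full effect; nearly all actives have a fitted effect of over 50% in size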
How it was run: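 Readout is phospho-S6 Alexa 488 signal normalized to PI per well, reported as % active cells with thresholds set from rapamycin (7.5 nM) and DMSO controls. Cells: Tsc2-/-, p53-/- MEFs, 24 hrs compound at 37 C; PI cell number serves as viability.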

Activity change, negative = inhibition, inactive:
O=C(CCCN1C(=O)C(c2ccccc2)Oc2cccnc21)Nc1ccc(Br)cc1F (stereo unspecified) -4.48%
O=C(NC1CCCc2ccccc21)c1ccc2c(c1)sc1nc(-c3ccc(F)cc3)cn12 (stereo unspecified) 1.14%
COc1ccc(-c2nc(SCC(=O)NCCc3ccc(OC)c(OC)c3)n[nH]2)cc1 8.18%
CCOc1ccc(CCNC(=O)c2cc3c(=O)[nH]c4ccc(C)cc4c3s2)cc1OCC -9.22%
CC(=O)N(Cc1cccnc1)c1nc2c(C)c(C)ccc2s1 -1.63%
Cc1ccc(Cl)cc1NC(=O)C1CCC(CNS(=O)(=O)c2cccc3nsnc23)CC1 (stereo unspecified) -8.42%
CCc1ccc2c(c1)NC(c1cccs1)=NC(c1ccc(F)cc1)=N2 -0.632%
Cc1ccc(NC(=O)CCC(=O)N2Cc3ccccc3Oc3ncccc32)c(C)c1 1.41%
Cc1ccc(C(C)C)c(OCC(O)CN2CCN(c3ccccc3F)CC2)c1 (stereo unspecified) 3.99%
Cc1cccc(NC(=O)CSc2nc(-c3ccccc3)cc(=O)[nH]2)c1C 3.23%
CCOc1ccc(CCNC(=O)CN2C(=O)COc3ccc(S(=O)(=O)N4CCCC4)cc32)cc1 -12.1%
COc1ccc(-n2nnnc2C2CCN(S(=O)(=O)c3ccc(NC(C)=O)cc3)CC2)cc1 -12.5%
Cc1cccc(-c2nc(C)c(CCNC(=O)C(=O)Nc3ccccc3C#N)s2)c1 -3.84%
COCCCNC(=O)c1ccc(-c2nc(CS(=O)(=O)c3ccc(C)cc3)c(C)o2)cc1 0%
Cc1oc(-c2ccc(C(=O)NCc3cccc(F)c3)cc2)nc1COc1ccccc1 -2.89%
CCOC(=O)c1ccc(N2C(=O)c3n[nH]c(-c4ccco4)c3C2c2cccc(OC)c2)cc1 (stereo unspecified) -16%
COC(=O)c1ccc2c(=O)n(CCCCCC(=O)NCCc3ccc(Cl)cc3)c(=O)[nH]c2c1 0.34%
CCn1c(C(=O)N2CCC(C(=O)NCCc3ccc(C)cc3)CC2)cc2sccc21 -5.38%
Cc1ccc(Cn2ccnc2SCC(=O)NCc2ccccc2Cl)cc1 3.15%
N#Cc1c(C(F)(F)F)cc(-c2ccc(F)cc2)nc1SCC(=O)Nc1ccccc1 -5.37%
Cc1ccccc1NC(=O)CSc1nc2ccccc2c2nc(CCn3cncc3C)nn12 -7.65%
COc1ccc(NC(=O)CCc2c(C)nn(-c3ccc(N4CCCCC4)nn3)c2C)cc1Cl 5.69%
COc1ccccc1C(=O)Nc1cccc(C(=O)OCc2cc(=O)n3ccsc3n2)c1 5.09%
Cc1ccc(CNC(=O)C(C)n2nc(C)n3c(cc4sccc43)c2=O)cc1 (stereo unspecified) -8.72%
CCOC(=O)C1CCCN(C(=O)c2ccc3c(c2)sc2nc(-c4ccc(CC)cc4)cn23)C1 (stereo unspecified) -2.8%
O=C(CCS(=O)(=O)c1ccc(Br)cc1)Nc1ccc(F)cc1F -1.46%
Cc1ccc(-c2nc3ncccn3c2Nc2ccc3c(c2)OCCO3)cc1 -16.1%
CCc1ccc(CNc2ccc3c(c2)ncn3C(C)(C)C)cc1 -9.19%
Cc1cccc(NS(=O)(=O)c2ccc3c(c2)CC(C)N3C(=O)C2CCC2)c1C (stereo unspecified) -20.5%
COc1cccc2c1cc1c(=O)n(CC(=O)N3CCN(c4ccccc4)CC3)nc(C)n12 0.278%
CCOc1ccc(N2CC(c3nc4ccccc4n3CCOc3ccccc3OC)CC2=O)cc1 (stereo unspecified) 0.408%
CCc1nc2ccc(C(=O)NCc3cc(OC)ccc3OC)cc2nc1CC -3.67%
CCOc1ccc(CCNC(=O)CS(=O)(=O)Cc2nc(-c3ccc(OC)cc3)oc2C)cc1 5.41%
COc1ccc(Cn2c(=O)n(Cc3ccco3)c(=O)c3oc4ccccc4c32)cc1 -15.7%
Cc1cccc2sc(N(CCN(C)C)C(=O)c3ccc4c(c3)OCCO4)nc12 -18%
Cc1cc(OC(C)C(=O)Nc2cccc(-c3nc4ccccc4o3)c2)cc(C)c1Cl (stereo unspecified) -2.24%
Cc1ccc(Cn2c(C)c3cnn(CC(=O)NCc4ccccc4)c(=O)c3c2C)cc1 -12.7%
COc1ccc(-c2nc(CSCC(=O)N3CCN(c4cc(Cl)ccc4C)CC3)c(C)o2)cc1 -0.872%
COc1ccc(-c2nc(CS(=O)(=O)CC(=O)NCc3ccccc3Br)c(C)o2)cc1 0.879%
O=C(NCCCN1CCCCCC1)c1ccc2c(c1)sc1nc(-c3ccccc3)cn12 -4.56%
Cc1ccc(CNC(=O)CCCn2c(=O)c3ccccc3n(CC(=O)Nc3ccc(C)cc3)c2=O)cc1 8.41%
CCC(C(=O)Nc1ccc(C)c(C)c1)n1c(=O)c(C(F)(F)F)nc2ccccc21 (stereo unspecified) 3.08%
CCOc1ccc(NC(=O)CCc2c(C)nn(-c3ccc(N4CCCC4)nn3)c2C)cc1 -5.99%
CCOC(=O)c1c(NC(=O)COc2ccc(Cl)cc2C)sc2c1CCCCC2 -11.6%
Cc1ccc(CNC(=O)CS(=O)(=O)c2cccc3nsnc23)cc1 -2.69%
COc1cccc(NC(=O)Cn2c(=O)n(CCC(=O)NCCc3ccc(Cl)cc3)c(=O)c3ccccc32)c1 0.0691%
COc1ccc(CCNC(=O)Cc2c(C)c3cc4c(C(C)(C)C)coc4c(C)c3oc2=O)cc1 2%
COc1cc(-c2noc(-c3ccc(NCC4CCCO4)c([N+](=O)[O-])c3)n2)cc(OC)c1OC (stereo unspecified) -9.03%
Cc1ccc(CNC(=O)c2cc3c(=O)n(Cc4ccco4)ccc3nc2C)cc1 -0.571%
COc1ccc(NC(=O)CC2C(=O)N(c3ccc(OC)cc3)C(=O)N2CCC2=CCCCC2)cc1 (stereo unspecified) -6.57%
Cc1ccc(C)c(Nc2cc(C(=O)NC3CCCC3)c3ccccc3n2)c1 9.52%
COc1cc(NC(=O)CSc2nc3ncccc3o2)cc(OC)c1 -2.67%
COc1cc(NC(=O)CN2CCN(c3ccc(F)cc3)CC2)cc(OC)c1 3.69%
Cc1ccc(NC(=O)CCc2c(C)nc3c(-c4ccc(F)cc4)c(C)nn3c2C)cc1F -1.74%
Cc1ccc2oc(-c3ccc(NC(=O)CCC(=O)O)cc3)nc2c1 -14.1%
CCn1cc2nc(SCC(=O)Nc3cc(OC)cc(OC)c3)n(Cc3ccc(Cl)cc3)c(=O)c2n1 -0.979%
O=C(/C=C/c1ccccc1Cl)N1CCC(c2nc3ccccc3o2)CC1 -8.23%
CCOc1ccc(NC(=O)c2sc3nc4n(c(=O)c3c2C)CCC4)cc1 1.41%
COC(=O)N1CCCc2cc(S(=O)(=O)NCc3ccccc3)ccc21 -19.5%
Cc1cccc(C)c1NC(=O)c1ccc2c(c1)nnn2C1CCCC1 -23.2%
CCOc1cc(-c2ccc(OC(=O)c3ccccc3Cl)c(OC)c2)cc(=O)c2c(C)oc(C)c12 -5.44%
COc1ccc(-c2nn3c(=O)cc(CN4CCN(C(=O)/C=C/c5ccccc5)CC4)nc3s2)cc1 -0.923%
COc1ccc(C2CC(=O)Nc3c2c(=O)[nH]c2nc4ccccc4n32)cc1 (stereo unspecified) 0.616%
Cc1cc(C)cc(NC(=O)CSc2nc3c(c(=O)[nH]2)CN(Cc2ccc(F)cc2)CC3)c1 1.05%
CCn1cc(C(=O)Nc2cccc(Cl)c2)c2cc(OC)c(OC)cc2c1=O 0.622%
CCCCN(CC)CCNC(=O)C1CCN(S(=O)(=O)c2cccc3nsnc23)CC1 0.657%
CCNC(=O)c1ccc(NC(=O)N2CCCCc3ccccc32)cc1 -11%
Cc1ccccc1COC(=O)c1nn(-c2ccccc2)nc1N 0.949%
COc1ccccc1N1CCN(C(=O)Cn2c(=O)n3nc(-c4cccc(F)c4)nc3c3ccccc32)CC1 -9.43%
CCc1nn(CC(=O)N2CCN(c3ccc(OC)cc3)CC2)c(=O)c2cc3sccc3n12 -3.09%
CC(CCc1ccccc1)NC(=O)Cn1ncc2c3ccccc3n(Cc3ccccc3F)c2c1=O (stereo unspecified) -0.279%
COc1ccc(-c2cnc(C)o2)cc1S(=O)(=O)Nc1ccc(NC(C)=O)cc1 12.5%
CCC(=O)C1=C(c2ccc(F)cc2)N(C(=O)CC)n2c(nnc2-c2ccc(OC)cc2)S1 -0.442%
O=C(CSc1nccn1-c1cccc(Cl)c1)Nc1ccc2c(c1)OCO2 -5.54%
CCN(C(=O)C1CCN(S(=O)(=O)c2cc(Br)cc3c2N(C(C)=O)CC3)CC1)c1cccc(C)c1 3.34%
Cn1c(=O)oc2cc(S(=O)(=O)CCC(=O)N3CCN(c4ccccc4F)CC3)ccc21 -14.7%
O=C(CCn1c(=O)c2cccn2c2cccnc21)N1CCN(c2ccccc2)CC1 -4.48%
Cc1ccc(-c2cc(C(=O)Oc3ccc(C#N)cc3)no2)cc1 -0.506%
CCn1c(SCC(=O)Nc2ccccc2C(=O)OC)nc2ccsc2c1=O -7.51%
CCC(=O)NNc1ncnc2c1cnn2-c1ccc(C)c(Cl)c1 13.7%
CCN(Cc1ccccc1)C(=O)Cn1c(=O)n(-c2ccccc2)c(=O)c2c1c1cc(C)ccc1n2C 2.91%
Cc1nc2ccccc2c(=O)n1-c1ccc(NC(=O)c2ccccc2[N+](=O)[O-])cc1 -0.438%
O=C(CSc1nc(=O)[nH]c2c1CCC2)NCc1ccccc1Cl 2.52%
CCc1ccc(CSc2nc(-c3ccccc3F)nc3c2Cc2c(CO)cnc(C)c2O3)cc1 4.53%
COc1ccc(OC(=O)c2nc(SCc3ccccc3F)ncc2Cl)cc1 1.4%
Cc1ccc(NC(=O)Cn2c(=O)n(Cc3ccco3)c(=O)c3oc4ccccc4c32)cc1C -9.42%
CCC(C)NC(=O)c1nn(-c2ccc(C)cc2)nc1CO (stereo unspecified) 1.58%
O=C(Nc1ccc2nc(SCC(=O)N3CCOCC3)sc2c1)c1cccc(Br)c1 -9.89%
CC(C)(C)c1ccc(C(=O)NCC(c2cccnc2)N2CCc3ccccc3C2)cc1 (stereo unspecified) -14.4%
Cc1cccc(CNC(=O)C2CCC(CNS(=O)(=O)c3ccc4c(c3)CCCC(=O)N4)CC2)c1 (stereo unspecified) -5.06%
NS(=O)(=O)c1ccc(NC(=O)CSc2ccc3ccccc3n2)cc1 -14.6%
Cc1ccc(S(=O)(=O)c2cn(CC(=O)Nc3cccc(C)c3)c3cc4c(cc3c2=O)OCO4)cc1 -3.71%
Cc1ccc(CNS(=O)(=O)c2cc3c(cc2Cl)NC(=O)CO3)o1 0%
CC1CCC(C(=O)NC(C(=O)OCC(=O)c2ccc(Br)cc2)C(C)C)CC1 (stereo unspecified) -4%
CCC(CC)C(=O)Nc1cc(-c2ccccc2F)nn1-c1ccccc1 5.01%
Cc1ccc(/C=C/c2onc(C)c2S(=O)(=O)N2CCC(C(=O)Nc3ccc(Br)c(C)c3)CC2)cc1 -8.21%
